One compound from PubChem BioAssay (NCI) can be followed below.

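The compound was tested at five concentrations on cells cultured in 96-well plates, with a 48-hour exposure period. GI50 is the concentration that inhibits growth by half.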 The source holds more than one record for some entries. The other results are left out here. There may be further records. A record mostly stands for its own series of concentrations, not given here; a value can be the end of its range.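 TGI marks complete inhibition of growth.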

In this assay the test system is MDA-MB-468 breast. The assay is described as follows: growth of human tumour cells (NCI), 48 h.

On to `CC(=O)c1cnc2ccc(-c3cc(Cl)c(O)c(Cl)c3)nc2c1NC1CCC(CN(C)C)CC1` (configuration not stated), for which the GI50 was 7.11 nM and 179 nM; the TGI is 47.9 nM and 1.32 µM.
